Changes are numbered by the printed parent chain. In names and notes the source's numbering stands. These are yes or no findings as the source states them, for the method shown. In cells and extracts the contact can be indirect. Some results given as binding are weak or reduced against the parent protein; the word gives no strength. For part of these data: Where a sequence is shown, tags or fusion partners need not be part of it.
B1: TMED3 (transmembrane emp24 domain‐containing protein 3) (protein, UniProt Q9Y3Q3 24-217)
chain: PCGAELTFELPDNAKQCFHEEVEQGVKFSLDYQVITGGHYDVDCYVEDPQGNTIYRETKKQYDSFTYRAEVKGVYQFCFSNEFSTFSHKTVYFDFQVGDEPPILPDMGNRVTALTQMESACVTIHEALKTVIDSQTHYRLREAQDRARAEDLNSRVSYWSVGETIALFVVSFSQVLLLKSFFTEKRPISRAVHS
B2: DYK‐tagged TMED3 (TMED3‐DYK) (protein, UniProt Q9Y3Q3 24-217)
chain: B1 chain
B3: p.H723R‐pendrin (protein, UniProt O43511 1-780)
chain: MAAPGGRSEPPQLPEYSCSYMVSRPVYSELAFQQQHERRLQERKTLRESLAKCCSCSRKRAFGVLKTLVPILEWLPKYRVKEWLLSDVISGVSTGLVATLQGMAYALLAAVPVGYGLYSAFFPILTYFIFGTSRHISVGPFPVVSLMVGSVVLSMAPDEHFLVSSSNGTVLNTTMIDTAARDTARVLIASALTLLVGIIQLIFGGLQIGFIVRYLADPLVGGFTTAAAFQVLVSQLKIVLNVSTKNYNGVLSIIYTLVEIFQNIGDTNLADFTAGLLTIVVCMAVKELNDRFRHKIPVPIPIEVIVTIIATAISYGANLEKNYNAGIVKSIPRGFLPPELPPVSLFSEMLAASFSIAVVAYAIAVSVGKVYATKYDYTIDGNQEFIAFGISNIFSGFFSCFVATTALSRTAVQESTGGKTQVAGIISAAIVMIAILALGKLLEPLQKSVLAAVVIANLKGMFMQLCDIPRLWRQNKIDAVIWVFTCIVSIILGLDLGLLAGLIFGLLTVVLRVQFPSWNGLGSIPSTDIYKSTKNYKNIEEPQGVKILRFSSPIFYGNVDGFKKCIKSTVGFDAIRVYNKRLKALRKIQKLIKSGQLRATKNGIISDAVSTNNAFEPDEDIEDLEELDIPTKEIEIQVDWNSELPVKVNVPKVPIHSLVLDCGAISFLDVVGVRSLRVIVKEFQRIDVNVYFASLQDYVIEKLEQCGFFDDNIRKDTFFLTVRDAILYLQNQVKSQEGQGSILETITLIQDCKDTLELIETELTEEELDVQDEAMRTLAS
modifications: core-glycosylated, N-linked
B4: TMED10 (transmembrane emp24 domain‐containing protein 10) (protein, UniProt P49755 32-219)
chain: ISFHLPINSRKCLREEIHKDLLVTGAYEISDQSGGAGGLRSHLKITDSAGHILYSKEDATKGKFAFTTEDYDMFEVCFESKGTGRIPDQLVILDMKHGVEAKNYEEIAKVEKLKPLEVELRRLEDLSESIVNDFAYMKKREEEMRDTNESTNTRVLYFSIFSMFCLIGLATWQVFYLRRFFKAKKLIE

The chains behind the UniProt entries cited, without tags or fusion partners. Where a name states a change or a piece, a line headed by the entry shows the natural chain unless it says otherwise. A line that says so, or that is headed by a name, gives the form on record, which may keep a tag or linker. Residues count along the entry.
UniProt P13569: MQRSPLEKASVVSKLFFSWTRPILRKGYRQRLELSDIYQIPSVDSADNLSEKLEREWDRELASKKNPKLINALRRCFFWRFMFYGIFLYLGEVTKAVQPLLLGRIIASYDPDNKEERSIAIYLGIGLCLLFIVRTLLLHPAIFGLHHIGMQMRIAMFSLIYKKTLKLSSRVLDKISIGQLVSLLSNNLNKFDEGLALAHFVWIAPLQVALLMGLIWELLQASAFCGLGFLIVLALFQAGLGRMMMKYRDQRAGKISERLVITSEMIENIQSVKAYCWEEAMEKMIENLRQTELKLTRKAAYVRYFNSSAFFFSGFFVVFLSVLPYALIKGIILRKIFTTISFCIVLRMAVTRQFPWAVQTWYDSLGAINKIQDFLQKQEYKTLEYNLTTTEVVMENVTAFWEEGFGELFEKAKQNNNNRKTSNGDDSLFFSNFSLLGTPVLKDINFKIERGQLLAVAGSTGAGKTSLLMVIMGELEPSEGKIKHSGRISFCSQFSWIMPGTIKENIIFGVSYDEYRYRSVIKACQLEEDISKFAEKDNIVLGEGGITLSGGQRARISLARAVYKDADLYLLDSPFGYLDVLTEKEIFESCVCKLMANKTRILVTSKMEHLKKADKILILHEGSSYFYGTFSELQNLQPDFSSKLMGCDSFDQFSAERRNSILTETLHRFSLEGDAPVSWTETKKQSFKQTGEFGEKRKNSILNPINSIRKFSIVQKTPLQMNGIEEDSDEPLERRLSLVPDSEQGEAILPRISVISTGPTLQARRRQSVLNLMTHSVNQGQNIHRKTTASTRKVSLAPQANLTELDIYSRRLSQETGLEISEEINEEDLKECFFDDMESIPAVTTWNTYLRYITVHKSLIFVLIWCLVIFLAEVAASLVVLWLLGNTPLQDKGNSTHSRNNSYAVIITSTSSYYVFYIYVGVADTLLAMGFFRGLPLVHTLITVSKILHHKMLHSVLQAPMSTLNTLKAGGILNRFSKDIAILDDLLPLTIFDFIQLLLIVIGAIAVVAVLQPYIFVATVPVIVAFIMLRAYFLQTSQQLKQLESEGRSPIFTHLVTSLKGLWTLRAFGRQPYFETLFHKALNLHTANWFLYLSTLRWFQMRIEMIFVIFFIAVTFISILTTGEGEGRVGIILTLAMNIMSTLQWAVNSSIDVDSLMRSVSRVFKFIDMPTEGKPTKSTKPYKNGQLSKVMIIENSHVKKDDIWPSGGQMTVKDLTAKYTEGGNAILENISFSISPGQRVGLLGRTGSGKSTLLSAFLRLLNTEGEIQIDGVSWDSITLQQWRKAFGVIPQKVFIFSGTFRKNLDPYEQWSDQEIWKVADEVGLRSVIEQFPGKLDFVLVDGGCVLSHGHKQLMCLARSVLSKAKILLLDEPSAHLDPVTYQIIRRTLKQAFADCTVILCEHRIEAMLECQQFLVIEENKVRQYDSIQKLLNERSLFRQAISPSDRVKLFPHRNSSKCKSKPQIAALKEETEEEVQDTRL
ΔF508‐CFTR (cystic fibrosis transmembrane conductance regulator with deletion of phenylalanine 508) (P13569, form named): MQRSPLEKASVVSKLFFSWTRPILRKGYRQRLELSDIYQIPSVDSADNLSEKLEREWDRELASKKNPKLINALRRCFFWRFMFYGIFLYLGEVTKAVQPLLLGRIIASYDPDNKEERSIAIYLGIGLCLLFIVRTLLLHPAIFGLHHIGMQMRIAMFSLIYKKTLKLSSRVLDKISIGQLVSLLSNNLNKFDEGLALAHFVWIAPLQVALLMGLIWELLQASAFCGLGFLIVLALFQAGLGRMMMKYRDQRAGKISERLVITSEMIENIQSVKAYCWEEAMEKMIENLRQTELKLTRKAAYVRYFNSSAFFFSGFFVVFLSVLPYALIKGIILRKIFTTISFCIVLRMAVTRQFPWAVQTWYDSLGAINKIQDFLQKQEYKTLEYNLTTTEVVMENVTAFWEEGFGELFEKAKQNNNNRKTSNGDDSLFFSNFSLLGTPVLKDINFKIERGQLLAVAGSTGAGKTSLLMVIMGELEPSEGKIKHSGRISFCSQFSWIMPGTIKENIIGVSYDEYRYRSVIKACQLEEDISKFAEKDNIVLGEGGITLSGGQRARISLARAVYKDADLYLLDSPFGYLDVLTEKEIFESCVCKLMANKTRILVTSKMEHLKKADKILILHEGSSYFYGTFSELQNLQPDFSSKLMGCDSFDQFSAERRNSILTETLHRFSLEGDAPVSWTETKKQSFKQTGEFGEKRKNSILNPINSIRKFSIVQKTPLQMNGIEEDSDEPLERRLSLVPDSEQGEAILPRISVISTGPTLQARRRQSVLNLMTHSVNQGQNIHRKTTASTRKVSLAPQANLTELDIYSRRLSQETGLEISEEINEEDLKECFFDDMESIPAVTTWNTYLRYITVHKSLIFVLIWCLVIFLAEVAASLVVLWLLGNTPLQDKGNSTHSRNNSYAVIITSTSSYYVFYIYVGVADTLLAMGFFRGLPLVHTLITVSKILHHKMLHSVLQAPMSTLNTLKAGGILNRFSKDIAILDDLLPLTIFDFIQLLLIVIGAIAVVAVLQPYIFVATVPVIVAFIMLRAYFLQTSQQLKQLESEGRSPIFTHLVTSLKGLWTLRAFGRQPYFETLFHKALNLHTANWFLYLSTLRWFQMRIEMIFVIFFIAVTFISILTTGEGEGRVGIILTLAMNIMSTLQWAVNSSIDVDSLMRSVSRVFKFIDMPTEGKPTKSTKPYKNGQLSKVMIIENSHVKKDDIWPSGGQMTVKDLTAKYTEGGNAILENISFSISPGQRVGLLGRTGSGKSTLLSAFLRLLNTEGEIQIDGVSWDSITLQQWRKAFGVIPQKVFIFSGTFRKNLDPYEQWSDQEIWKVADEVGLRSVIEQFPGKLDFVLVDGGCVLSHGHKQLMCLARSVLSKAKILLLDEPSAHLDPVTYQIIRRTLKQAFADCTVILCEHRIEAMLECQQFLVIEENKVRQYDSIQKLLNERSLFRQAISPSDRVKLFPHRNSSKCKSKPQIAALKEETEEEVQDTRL
UniProt Q15363, residues 21-201: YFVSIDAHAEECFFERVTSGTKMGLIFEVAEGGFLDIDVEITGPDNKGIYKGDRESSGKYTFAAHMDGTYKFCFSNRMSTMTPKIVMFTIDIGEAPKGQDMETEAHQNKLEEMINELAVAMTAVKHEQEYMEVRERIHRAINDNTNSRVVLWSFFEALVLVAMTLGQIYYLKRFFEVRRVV

Legend:
[1] = target: ΔF508‐CFTR (cystic fibrosis transmembrane conductance regulator with deletion of phenylalanine 508) (human) (UniProt P13569); test: co-IP
[2] = target: T1, p.H723R‐pendrin (human) (UniProt O43511); test: co-IP
T1 sequence (chain, core-glycosylated, N-linked): B3 chain

[3] = target: T2, DYK‐tagged TMED3 (TMED3‐DYK) (human) (UniProt Q9Y3Q3); test: co-IP; HEK293 cells transfected with DYK‐tagged TMED2, 3, 9 or 10, ARF1‐Q71L in some cells; precipitated with anti‐DYK, blotted with antibodies against each TMED
T2 sequence: B1 chain

[4] = target: T3, GST‐fused TMED3‐GOLD (GST‐TMED3‐GOLD) (human) (UniProt Q9Y3Q3); test: pull-down; GST‐fused TMED3 proteins bound to glutathione Sepharose, incubated overnight at 4 °C with lysates of HEK293 cells expressing CFTR; in Figure 5D,E cells with ARF1‐Q71L and 1‐deoxynojirimycin (100 µM), kifunensine (10 µM) or swainsonine (100 µM); only the target purified
T3 sequence: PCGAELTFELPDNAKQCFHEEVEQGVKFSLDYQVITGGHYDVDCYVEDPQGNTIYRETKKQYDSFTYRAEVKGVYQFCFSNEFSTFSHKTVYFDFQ

[5] = target: T4, WT‐pendrin (human) (UniProt O43511); test: co-IP
T4 sequence: B3 chain with R723H

[6] = target: WT‐CFTR (wild‐type cystic fibrosis transmembrane conductance regulator) (human) (UniProt P13569); test: co-IP
[7] = target: T5, DYK‐tagged TMED10 (TMED10‐DYK) (human) (UniProt P49755); test: co-IP; HEK293 cells transfected with DYK‐tagged TMED2, 3, 9 or 10, ARF1‐Q71L in some cells; precipitated with anti‐DYK, blotted with antibodies against each TMED
T5 sequence: B4 chain

[8] = target: DYK‐tagged TMED2 (TMED2‐DYK) (human) (UniProt Q15363); test: as above
[9] = target: T6, DYK‐tagged TMED9 (TMED9‐DYK) (human) (UniProt Q9BVK6); test: as above
T6 sequence: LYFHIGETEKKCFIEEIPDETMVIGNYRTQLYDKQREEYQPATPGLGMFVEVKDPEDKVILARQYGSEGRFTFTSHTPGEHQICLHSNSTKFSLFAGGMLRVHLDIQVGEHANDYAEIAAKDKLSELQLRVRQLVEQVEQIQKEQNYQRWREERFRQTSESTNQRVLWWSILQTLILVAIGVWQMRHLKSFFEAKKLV

[10] = target: HA‐tagged ΔF508‐CFTR (extracellular‐tagged full‐length HA‐ΔF508‐CFTR) (human) (UniProt P13569); test: co-IP
[11] = target: T1, p.H723R‐pendrin (human); test: co-IP; PANC‐1 cells, TMED3 and p.H723R‐pendrin, GRASP55 and/or ARF1‐Q71L co‐expressed in some cells; precipitating antibody not stated (Figure 4E,F)
[12] = target: T3, GST‐fused TMED3‐GOLD (GST‐TMED3‐GOLD) (human); test: pull-down; only the target purified

Row | binding [1] | binding [2] | binding [3] | other results | Molecule
1 | no binding | no binding | binds |  | TMED9 (transmembrane emp24 domain‐containing protein 9) (from UniProt Q9BVK6 38-235)
2 |  |  |  | binding [4]: binds | HA‐tagged ΔF508‐CFTR (extracellular‐tagged full‐length HA‐ΔF508‐CFTR) (from UniProt P13569 1-1480)
3 | no binding | no binding | binds |  | TMED2 (transmembrane emp24 domain‐containing protein 2) (from UniProt Q15363 21-201)
4 |  |  |  | binding [4]: binds | ΔF508‐CFTR (cystic fibrosis transmembrane conductance regulator with deletion of phenylalanine 508) (from UniProt P13569 1-1480)
5 | binds | binds |  | binding [5]: binds; binding [6]: binds; binding [7]: binds; binding [8]: binds; binding [9]: binds | B1
6 |  |  |  | binding [10]: binds; binding [11]: binds | B2
7 |  |  |  | binding [12]: binds | B3
8 | no binding | no binding | binds |  | B4

Reference: article PMC9350134
